According to PubChem BioAssay (Tox21):
“And” between values parts separate entries of the source, which are not always exact repeats. Identical values can stand only once. The shares of active, inactive and inconclusive entries below differ from those in the screen. For some of these results: Potencies of inconclusive entries are doubtful fits and often do not repeat. The source made the active and inactive calls. Unless noted, the call rests on the fitted dose curve.

Columns and labels:
[1] = target: Peroxisome proliferator-activated receptor gamma (Homo sapiens) (UniProt P37231); test: qHTS assay to identify small molecule antagonists of the peroxisome proliferator-activated receptor gamma (PPARg) signaling pathway (AID 743191); conditions: HEK293H PPARg-UAS-bla, beta-lactamase ratio, antagonist, 17 h; ratio activity, negative = inhibition: at 62.6 µM (top of the series) unless noted; further: nearly all actives have a fitted effect of over 30% in size
UniProt P37231, sequence (P37231 whole entry, looked up): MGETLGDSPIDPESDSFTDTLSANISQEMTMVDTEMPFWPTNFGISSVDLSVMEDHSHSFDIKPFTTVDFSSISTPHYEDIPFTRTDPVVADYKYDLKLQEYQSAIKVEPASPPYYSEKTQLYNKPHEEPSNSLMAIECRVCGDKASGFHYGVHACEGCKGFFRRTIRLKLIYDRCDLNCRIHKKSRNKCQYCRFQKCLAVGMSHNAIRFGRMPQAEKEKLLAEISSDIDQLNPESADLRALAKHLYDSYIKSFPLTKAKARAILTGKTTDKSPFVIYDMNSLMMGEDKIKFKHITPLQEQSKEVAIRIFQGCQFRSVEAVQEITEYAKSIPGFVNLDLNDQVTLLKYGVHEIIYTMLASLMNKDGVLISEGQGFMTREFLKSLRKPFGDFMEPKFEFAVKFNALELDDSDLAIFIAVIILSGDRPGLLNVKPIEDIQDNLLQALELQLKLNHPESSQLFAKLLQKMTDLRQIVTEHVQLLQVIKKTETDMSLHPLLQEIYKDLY
Method in brief: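 GeneBLAzer PPARg UAS-bla HEK293H cells, 5 h post-plating, exposed to compounds 17 h at 37C. LiveBLAzer B/G FRET substrate added for 1 h at room temperature; beta-lactamase reporter read by fluorescence intensity.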

[2] = qHTS assay for small molecule agonists of the antioxidant response element (ARE) signaling pathway (AID 743202; active means well fitted activation curve with a large enough effect in the signal ratio in the repeat runs, not every such curve was filed as active; inconclusive means weak or mixed curves, or effect the other way; inactive means no such curve, though single readings can be large or run the other way; the % refers to the signal ratio); conditions: HepG2 ARE-bla reporter, beta-lactamase FRET, 16 h
Method in brief: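 HepG2 ARE-bla reporter line, 2,000 cells/well; 5 h preincubation 37 C/5% CO2; compound (DMSO) 16 h 37 C; B/G FRET substrate 2 h RT; fluorescence intensity.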

[3] = qHTS assay for small molecule agonists of the antioxidant response element (ARE) signaling pathway - cell viability counter screen (AID 743203); conditions: ARE-bla HepG2 viability, CellTiter-Glo luminescence, 16 h; viability change, negative = cytotoxic: at 73.3 µM (top of the series); further: nearly all actives have a fitted effect of over 55% in size
Method in brief: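 Cytotoxicity was tested in parallel with the ARE reporter screen. ARE-bla HepG2 cells were exposed to compounds for 16 hrs, and viability was taken from CellTiter-Glo luminescence.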

[4] = qHTS assay for small molecule activators of the heat shock response signaling pathway - cell viability counter screen (AID 743209; active means well fitted curve in the direction sought with a large enough effect in the repeat runs; inconclusive means weak or mixed curves; inactive means no such curve, though single readings can be large; an effect the other way counts as inactive or inconclusive; further: nearly all actives have a fitted effect of over 50% in size); conditions: HSE-bla HeLa viability, CellTiter-Glo luminescence, 5 h; activity change, negative = cytotoxicity: at 62.6 µM (top of the series) unless noted
Method in brief: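 Cytotoxicity counter screen run in parallel with the HSE beta-lactamase reporter, using the same wells. HeLa HSE-bla cells received compound for 5 h at 37 C; ATP-based CellTiter-Glo luminescence was measured after 30 min at room temperature.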

[5] = qHTS assay for small molecule activators of the heat shock response signaling pathway (AID 743210; active means well fitted activation curve with a large enough effect in the signal ratio in the repeat runs, with a control signal flat, not every such curve was filed as active; inconclusive means weak or mixed curves; the % refers to the signal ratio;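 on activation: HeLa cells with beta-lactamase reporter driven by heat shock elements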); conditions: HeLa HSE-bla reporter, beta-lactamase ratio, 5 h; activation: at 62.6 µM (top of the series) unless noted
Method in brief: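 Beta-lactamase reporter read-out: FRET substrate fluorescence after 2.5 h at RT, following 5 h compound treatment at 37 C of HeLa cells carrying HSE-driven bla reporter; quantitative HTS format.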

[6] = qHTS assay to identify small molecule agonists of the peroxisome proliferator-activated receptor delta (PPARd) signaling pathway - cell viability counter screen (AID 743211; active means well fitted curve in the direction sought with a large enough effect in the repeat runs; inconclusive means weak or mixed curves; inactive means no such curve, though single readings can be large; an effect the other way counts as inactive or inconclusive; further: nearly all actives have a fitted effect of over 55% in size); conditions: PPARd-bla HEK293H viability, CellTiter-Glo luminescence, 17 h; activity change, negative = cytotoxicity: at 62.6 µM (top of the series)
Method in brief: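 Following 5 h plating at 37 C and 5% CO2, PPARd UAS-bla HEK293H cells took up test compounds for 17 h. Viability was quantified by luminescence 30 min after CellTiter-Glo addition at room temperature.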

[7] = activation: at 73.3 µM (top of the series) unless noted
On the % scale 0 is the no-effect control and ±100 the full control effect; potency means the concentration at half of the fitted maximal effect; tags describe the fitted curve by direction and shape or compound fluorescence and quenching.

Cc1c[nH]c2ccccc12
ratio activity, negative = inhibition [1]: inconclusive: 0.597% | activation [2, 7]: inconclusive: 17.8%

NC(=O)c1ccccc1[N+](=O)[O-]
ratio activity, negative = inhibition [1]: inconclusive: -8.86% [at 81.1 µM] | activation [2, 7]: inconclusive: 15.5% [at 94.8 µM]

CCCC/C=C/C=C\C=O
Potency [1]: inconclusive: 54.9 µM [inhibitor, single point] | activation [2, 7]: inconclusive: 37%

CC1(C)O[C@@H]2C[C@H]3[C@@H]4C[C@H](F)C5=CC(=O)CC[C@]5(C)[C@H]4[C@@H](O)C[C@]3(C)[C@]2(C(=O)CO)O1
ratio activity, negative = inhibition [1]: inconclusive: 8.99% and inconclusive: 15.7% | activation [2, 7]: inconclusive: 8.67%

OCCN(CCO)c1cccc(Cl)c1
Potency [1]: inactive | activation [2, 7]: inconclusive: -10.9%

O=C(c1ccccc1)c1ccc(O)cc1
Potency [1]: inactive | Potency [2, 7]: inconclusive: 61.8 µM [rising, partial curve]

Cc1ccc(C(=O)Oc2ccc(C(O)CNC(C)(C)C)cc2OC(=O)c2ccc(C)cc2)cc1 (stereo unspecified)
ratio activity, negative = inhibition [1]: inconclusive: 18.8% | activation [2, 7]: inconclusive: 36.6% | Potency [3]: inconclusive: 33.5 µM [cytotoxic, single point] | Potency [4]: inconclusive: 33.5 µM [cytotoxic, single point]

Nc1nc(F)nc2c1ncn2[C@@H]1O[C@H](CO)[C@@H](O)[C@@H]1O
ratio activity, negative = inhibition [1]: inconclusive: 6.13% | Potency [2, 7]: inconclusive: 13.3 µM [rising, partial curve] | Potency [4]: inactive

C=C1c2cccc(O)c2C(O)=C2C(=O)[C@]3(O)C(O)=C(C(N)=O)C(=O)[C@@H](N(C)C)[C@@H]3[C@@H](O)[C@H]12
Potency [1]: inconclusive: 33.5 µM [inhibitor, partial curve, poor fit] | Potency [2, 7]: inactive

CC12CCC(CC1)C(C)(C)O2
ratio activity, negative = inhibition [1]: inconclusive: -1.98% | activation [2, 7]: inconclusive: -13.1% | activation ([2]; at 73.3 µM (top of the series)): inactive: -8.96% and inactive: -0.272% | Potency [3]: inconclusive: 5.96 µM [cytotoxic, partial curve, poor fit] | Potency [5]: inactive

CCc1ccc2c(c1)C(=O)c1ccccc1C2=O
ratio activity, negative = inhibition [1]: inconclusive: 1.99% | Potency [2, 7]: active: 34.4 µM | Potency [3]: inactive | Potency [4]: inactive

CCOc1ccc(NC(C)=O)cc1
Potency [1]: inactive | activation [2, 7]: inconclusive: 26.1% [at 94.8 µM] | activation ([2]; at 73.3 µM (top of the series)): inactive: 7.46% and inactive: -8.39%

N[C@@H](Cc1c[nH]c2ccccc12)C(=O)O
Potency [1]: inconclusive: 61.7 µM [rising, partial curve, poor fit] | activation [2, 7]: inconclusive: -9.64% | activation ([2]; at 73.3 µM (top of the series)): inactive: 10.9%

CCCCNS(=O)(=O)c1ccc(C)cc1
Potency [1]: inactive | activation [2, 7]: inconclusive: -4.03%

COC(=O)c1ccccc1Cl
Potency [1]: inactive | Potency [2, 7]: inactive | Potency [4]: inconclusive: 27.5 µM [rising, partial curve, poor fit]

CNCc1ccc(NC(=O)c2c[nH]c3c2C(=O)CCC3)cc1
Potency [1]: inactive | Potency [2, 7]: inconclusive: 54.5 µM

CCCCOC(=O)c1ccc(O)cc1
Potency [1]: inconclusive: 24.8 µM [inhibitor, partial curve] and inconclusive: 23.7 µM [inhibitor, partial curve, poor fit] | activation [2, 7]: inconclusive: 24.3% [at 94.8 µM] | activation ([2]; at 73.3 µM (top of the series)): inactive: 17.2% and inactive: 7.07% | activation [5]: inconclusive: 3.23% [at 81.1 µM]

c1ccc2c(c1)ccc1ncccc12
ratio activity, negative = inhibition [1]: inconclusive: 10.2% | Potency [2, 7]: inconclusive: 8.57 µM [rising, partial curve, poor fit] | activation [2, 7]: inconclusive: -56.3% | Potency [6]: inactive and inconclusive: 61.7 µM [cytotoxic, single point]

CCCCCCCCCC(=O)O
Potency [1]: active: 30.9 µM and inconclusive: 5.16 µM [inhibitor] | Potency [2, 7]: inconclusive: 68.7 µM [rising, single point] | Potency [3]: inconclusive: 61.2 µM [cytotoxic, partial curve, poor fit] | Potency [5]: inconclusive: 61.8 µM [falling, single point]

O=C(C(Cl)Cl)N1CCOC12CCCCC2
ratio activity, negative = inhibition [1]: inconclusive: 1.15% | Potency [2, 7]: active: 34.4 µM

COC(=O)c1sccc1S(N)(=O)=O
Potency [1]: inactive | Potency [2, 7]: inconclusive: 61.1 µM [rising, partial curve, poor fit]

CC(O)Cn1cnc2c1c(=O)n(C)c(=O)n2C (stereo unspecified)
ratio activity, negative = inhibition [1]: inconclusive: 23.8% | Potency [2, 7]: inactive
